In PubChem BioAssay AID624417 (National Center for Advancing Translational Sciences (NCATS), 2012):
“And” between values parts separate entries of the source, which are not always exact repeats. Equal entries are not always repeated. About 6,400 (1.6%) of roughly 410,000 compounds were called active. This list was built around the results that the source calls inconclusive (neither active nor inactive); the mix of calls is not that of the screen. Calls come from the whole dose curve; as a rule, active = well fitted inhibition curve with a large enough effect; inconclusive = small, poorly fitted or top-dose-only effect; inactive = no such curve, though single readings can be large or run the other way. Where the call is inconclusive, the potency comes from a doubtful curve fit.

The compounds below were run against Glucagon-like peptide 1 receptor (Homo sapiens) (UniProt P43220) (assay: qHTS of GLP-1 Receptor Inverse Agonists (Inhibition Mode)). Conditions: HEK293 GLP-1R CRE-luciferase, luminescence, 24 h, GLP-1R form is constitutively active; activity change, negative = inhibition: at 38.3 µM (top of the series) unless noted.
In short: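 Inverse agonism was detected as reduced cAMP-driven luciferase luminescence after 24 h compound treatment. The cells were HEK293 clones expressing constitutively active human GLP-1R with the reporter. Reporter-only and GPR119 cell lines served as counterscreen controls.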
% is set by controls: 0 for no effect and ±100 for the full control effect; potency is the fitted concentration of half-maximal effect; tags give direction and shape of the fitted curve.
Note: nearly all actives have a fitted effect of over 55% in size.

UniProt P43220, sequence (P43220 whole entry, looked up): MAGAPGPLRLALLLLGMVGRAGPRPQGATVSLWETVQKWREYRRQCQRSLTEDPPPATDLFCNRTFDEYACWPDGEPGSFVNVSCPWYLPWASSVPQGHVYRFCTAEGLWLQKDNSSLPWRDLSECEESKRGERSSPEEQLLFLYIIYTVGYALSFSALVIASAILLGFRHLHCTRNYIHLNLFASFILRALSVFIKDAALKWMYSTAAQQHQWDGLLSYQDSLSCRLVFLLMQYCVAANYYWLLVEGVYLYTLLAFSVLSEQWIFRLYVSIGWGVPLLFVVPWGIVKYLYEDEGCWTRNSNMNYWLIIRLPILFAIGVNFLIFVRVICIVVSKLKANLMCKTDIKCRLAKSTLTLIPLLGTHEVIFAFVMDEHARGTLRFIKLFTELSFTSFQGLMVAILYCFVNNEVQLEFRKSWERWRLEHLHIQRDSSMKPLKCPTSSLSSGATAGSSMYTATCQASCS

Structure (SMILES)	activity change, negative = inhibition	Potency
Cc1ccccc1CN1CCN(C(=O)c2ccc(F)cc2)CC1	inactive: -26.2%	
Cc1ccn2c(NC3CCCCC3)c(-c3cccc(SC4CCCCC4)c3)nc2c1		inconclusive: 8.91 µM [inhibitor, partial curve, poor fit] and inconclusive: 14.1 µM [inhibitor, partial curve, poor fit]
COc1cc(C(=O)c2ccc3c(c2)OCO3)cc(OC)c1OC		inconclusive: 2 µM [inhibitor, partial curve, poor fit]
O=c1oc2ccc3ccccc3c2cc1-c1nnc(Nc2cccc(C(F)(F)F)c2)s1	inactive: -1.19%	
Cn1nc(-c2ccccc2F)c2cc(C(=O)NCc3cccc(Cl)c3)sc21		inconclusive: 11.2 µM [inhibitor, partial curve, poor fit]
Cc1ccc(C)c(NC(=O)c2nnn(Cc3ccc(F)cc3Cl)c2N)c1		inconclusive: 11.2 µM [inhibitor, partial curve, poor fit]
Cc1cc(C)nc(N2CCC(C(=O)NCc3ccccc3)CC2)n1	inactive: -7.87%	
Cc1cccc(CSc2nnc(CCCCCN)o2)c1		inconclusive: 20 µM [inhibitor, partial curve, poor fit]
Cc1cc(CSc2ccccc2)ccc1NC(=O)COc1ccccc1		inconclusive: 12.6 µM [inhibitor, single point]
CCc1c(C)sc2c1CCN(C(=O)Nc1cc(C)ccc1C)C2c1ccc(OC)cc1 (centres undefined)		inconclusive: 22.4 µM [inhibitor, single point]
COc1ccc(NC(=S)NCCCc2ccccc2)cc1		inconclusive: 28.2 µM [inhibitor, single point]
COc1ccc(N(C(=O)c2ccco2)C(C(=O)NC2CCCC2)c2ccc(C)cc2)c(OC)c1 (centres undefined)		inconclusive: 22.4 µM [inhibitor, single point]
COc1cc(CNc2ccc(N3CCCC3)cc2)cc(Cl)c1OC		inconclusive: 11.2 µM [inhibitor, partial curve, poor fit]
CCOC(=O)[C@]12CCCC=C1N(Cc1ccco1)C(=O)[C@H](CC(=O)N1CCC(c3ccccc3)CC1)C2		inconclusive: 10 µM [inhibitor, partial curve, poor fit]
S=C(N/N=C/c1ccc2ncccc2c1)Nc1ccccc1		inconclusive: 2.24 µM [inhibitor, full curve, poor fit]
S=C(NCc1ccccc1)N1CCN(C2CCCCC2)CC1		inconclusive: 6.31 µM [inhibitor, partial curve, poor fit]
Clc1ccccc1CN1CCc2nc(N3CCN(c4ncccn4)CC3)ncc2C1		inconclusive: 12.6 µM [inhibitor, single point]
COc1ccc(NC(=O)CN(c2ccccc2)S(=O)(=O)c2ccccc2)c(OC)c1		inconclusive: 10 µM [inhibitor, partial curve, poor fit]
COc1ccc(CNC(=O)C2CCCN(S(=O)(=O)N3CC(C)CC(C)C3)C2)c(OC)c1 (centres undefined)		inconclusive: 8.91 µM [inhibitor, partial curve, poor fit]
Cc1ccc(-c2noc(-c3nnn(-c4ccc(Br)cc4F)c3C)n2)cc1	inactive: 9.85%	

Structure (SMILES)	activity change, negative = inhibition	Potency
CCN1C(=O)[C@H]2[C@@H](c3ccc(-c4ccc(C(C)=O)cc4)cc3)N[C@@](Cc3ccccc3)(C(=O)OC)[C@H]2C1=O		inconclusive: 11.2 µM [inhibitor, partial curve, poor fit]
C[C@@H]1CN([C@@H](C)CO)S(=O)(=O)c2ccc(Br)cc2O[C@H]1CN(C)C(=O)C1CCCCC1	inactive: -22.6%	
O=C(Nc1ccccc1F)c1ccc2c(c1)CCN2S(=O)(=O)c1ccccc1		inconclusive: 20 µM [inhibitor, single point]
CC1CCc2nc(NC(=O)CN3CCN(Cc4ccc5c(c4)OCO5)CC3)sc2C1 (centres undefined)		inconclusive: 2.24 µM [inhibitor, full curve, poor fit]
CCSc1nccc(-c2nn(-c3ccc(C)cc3)ccc2=O)n1		inconclusive: 1.26 µM [inhibitor, partial curve, poor fit]
Cc1cccc(OCC(=O)N(Cc2ccc(F)cc2)C2CCS(=O)(=O)C2)c1C (centres undefined)		inconclusive: 11.2 µM [inhibitor, partial curve, poor fit]
O=C(NC(=S)N1CCOCC1)c1ccc(F)cc1		inconclusive: 11.2 µM [inhibitor, single point]
Cc1ccc2nc(C)c3c(c2c1)N(c1ccccc1)CC3		inconclusive: 5.01 µM [inhibitor, partial curve]
CC(=O)Nc1ccc(C(=O)Nc2ccc3c(c2)N(C2CCCC2)C(=O)c2ccccc2S3)cc1		inconclusive: 2.51 µM [inhibitor, partial curve, poor fit]
CC(/C=N/Nc1nc(C)cc(C)n1)=C\c1ccc(C(C)C)cc1		inconclusive: 31.6 µM [inhibitor, partial curve, poor fit]
CCc1nc2c(OCCC3CCCCC3)cccn2c1N(C)C(=O)c1ccccc1F		inconclusive: 5.01 µM [inhibitor, full curve, poor fit]
COCCn1c(SCc2ccccc2F)nc2ccccc2c1=O		inconclusive: 28.2 µM [inhibitor, single point]
Cc1ccc2nc(NC(=O)c3ccc4c(c3)OCO4)sc2c1	inactive: 8.44%	
COc1ccc(OC)c(NC(=O)Nc2ccc(Cl)cc2)c1		inconclusive: 28.2 µM [inhibitor, single point]
CC1(C)CC(=O)C2=C(C1)Nc1ccccc1NC2c1cc(Cl)ccc1O (centres undefined)		inconclusive: 2.51 µM [inhibitor, partial curve, poor fit]
CCCCn1nnnc1C(c1cc2ccccc2o1)N1CCN(c2ncccc2C#N)CC1 (centres undefined)		inconclusive: 11.2 µM [inhibitor, partial curve, poor fit]
CCCCCC(=O)Nc1nc(C)c(-c2csc(Nc3ccccc3OC)n2)s1	inactive: 19.2%	
NC(=O)C1CCN(C(=O)CCSc2ccc(Cl)cc2)CC1	inactive: -17.1%	
Cc1ccc(-c2cc(C(F)F)nc(S(C)(=O)=O)n2)cc1		inconclusive: 28.2 µM [inhibitor, single point]
